Among all 150,000 compounds or so, about 540 (0.36%) showed an effect of 50% or more. This is one part of the list.

The assay deals with Plasmodium falciparum. The assay is described as follows: Primary screen in NF54 nanoGlo assay, in single point, at 2uM, 72h; a lower Z score goes with more inhibition. Format: functional, Erythrocyte. The settings on record: timepoint 72 hour.
A word on the % Inhibition: it is the change of the read-out against control, counted positive when it falls. Consider `Cc1nc(Cn2ncc(N(C)Cc3ccccc3)cc2=O)co1`, for which the “% Inhibition” value is recorded as 7% and the Z score is given as -0.67.

Regarding `O=C1CCN(C(=O)c2ccc(-c3cccc(F)c3)cc2)CCN1Cc1ccccn1`, the “% Inhibition” value is recorded as -2% and the Z score stood at 0.46.

For `O=C(CN1c2ccccc2-c2ccccc2S1(=O)=O)N1CCCCC1`, the “% Inhibition” value is 0% and the Z score was determined as 0.

Turning to `O=C(Cc1ccon1)Nc1ccc(Oc2ccc(F)cc2F)nc1`, the “% Inhibition” value was -13% and the Z score is 1.79.

For the compound `CC(C)NC(=O)CCc1nnc2ccc(N3CCC4(CC3)OCCO4)nn12`, the “% Inhibition” value is -19% and the Z score is 2.56.

As for `CCc1nsc(N2CCCC3CC32)n1` (stereo not drawn), the “% Inhibition” value was 0% and the Z score amounted to 0.04.

Consider `COc1cc(CCNC(=O)N2CCOC(C(F)(F)F)C2C)ccn1` (stereo not drawn), for which the “% Inhibition” value is reported as -10% and the Z score stood at 1.39.

In the case of `CCCc1cc(N(CC(=O)O)CC(C)C)nc(C)n1`, the “% Inhibition” value is listed as -3% and the Z score was determined as 0.46.

For `C[C@@H](Cn1cccn1)N1CCC2(CC1)CN(CCOc1ccccc1)C(=O)O2`, the “% Inhibition” value is on record as -12% and the Z score was determined as 1.51.

Consider `Cc1cc(C)nc(CNC(=O)N2CCC[C@@H]2C(N)=O)n1`, for which the “% Inhibition” value was -2% and the Z score stood at 0.47.

Take `CCNc1nc(C)c(C(=O)N[C@@H]2[C@H]3CCO[C@H]3[C@H]2Cc2ccccc2)s1`: the “% Inhibition” value is given as 3% and the Z score is listed as -0.38.

Consider `O=C(c1cc(-c2cccnc2)nc2ccccc12)N1CCN(Cc2ccc3c(c2)OCO3)CC1`, for which the “% Inhibition” value amounted to 2% and the Z score is on record as -0.33.

On to `COCCn1cncc1Cn1cnc(-c2ccccc2)c1-c1cccc2nonc12`, for which the “% Inhibition” value turned out to be 10% and the Z score is reported as -1.24.

On to `O=C(NCCCN1CCCCC1)c1ccc(CN2C(=O)CCn3nc(-c4cccc(Cl)c4)cc32)cc1`, for which the “% Inhibition” value worked out at 14% and the Z score was -1.57.

Consider `CCc1ncnc(O[C@H]2CCN(S(=O)(=O)c3ccc(F)cc3C)C2)c1F`, for which the “% Inhibition” value is given as 5% and the Z score is listed as -0.74.

Consider `Cc1c(Br)c(C(F)F)nn1CC(=O)NCCCN1CCOCC1`, for which the “% Inhibition” value is 28% and the Z score is recorded as -3.83.

Consider `COc1ccnc(NC(=O)c2ccnn2C(C)C)c1C#N`, for which the “% Inhibition” value is -13% and the Z score was found to be 2.29.

`Cc1c(-c2nnc(C(=O)NCc3ccc(Cl)cc3)o2)oc2ccccc12`: the “% Inhibition” value was determined as 18% and the Z score is reported as -2.12.

For `CCC(Cc1ccc(F)cc1)NC(=O)N1C[C@@H](c2nnc(C)o2)O[C@@H](C)C1` (stereo partly drawn), the “% Inhibition” value is -13% and the Z score amounted to 1.71.

Turning to `Cc1ccc(C)c(-c2cc(C(=O)N3CC(F)(F)C[C@H]3COc3ccncc3)[nH]n2)c1`, the “% Inhibition” value is given as -6% and the Z score is listed as 1.03.

`CC1(c2nc(Cc3cncs3)no2)CCC(=O)CC1`: the “% Inhibition” value is reported as 5% and the Z score is -0.78.

`O=C(Nc1ccc2c(c1)OCCO2)c1[nH]nnc1-c1ccc(F)cc1`: the “% Inhibition” value is 11% and the Z score is -2.1.

For the compound `COC(=O)c1ccc(-c2noc(CN3CCCC[C@H](O)C3=O)n2)cc1`, the “% Inhibition” value was -9% and the Z score was 1.24.

Take `Cc1cc(Br)ccc1NC(=O)C1CCN(c2cc(C(F)(F)F)ncn2)CC1`: the “% Inhibition” value is -1% and the Z score turned out to be 0.07.

Regarding `OCC[C@H](NCC(F)(F)F)c1ccccc1`, the “% Inhibition” value is on record as 1% and the Z score is -0.18.

On to `Cc1nc(CN2CCC3(CC2)C[C@@H](c2ccccc2)C(=O)N(C2CC2)C3)no1`, for which the “% Inhibition” value was 1% and the Z score was -0.09.

As to `COCCCN1CC(=O)N[C@@H]2CN(C(=O)CN(C)C)CC[C@@H]2OCc2cccc(c2)Oc2ccc(cc2OC)CCC1=O`, the “% Inhibition” value turned out to be 1% and the Z score is reported as -0.19.

On to `O=C1NCCN(C(=O)c2cnc(-c3cccnc3)nc2)[C@H]1Cc1ccccc1`, for which the “% Inhibition” value was -1% and the Z score turned out to be 0.15.

`CN(CCO)C(=O)C(=O)Nc1cccc(CC(F)(F)F)c1`: the “% Inhibition” value is -11% and the Z score came out at 2.21.

On to `CC1=C(c2ccccc2)[C@H]1C(=O)NCc1cc(C2CC2)[nH]n1`, for which the “% Inhibition” value is recorded as -3% and the Z score is listed as 0.54.

For `CC(C)(CN1CCC(OCc2ccc(F)cc2)CC1)S(C)(=O)=O`, the “% Inhibition” value is reported as 1% and the Z score is -0.09.

For `Cc1cccc(CN2CCN(c3nc(C)ccc3C#N)C[C@@H]2CCO)n1`, the “% Inhibition” value is -6% and the Z score worked out at 0.81.

Consider `COC(=O)[C@H](C)N1CCn2nc(CCC(=O)NC3CCCC3)cc2C1`, for which the “% Inhibition” value was -2% and the Z score is 0.44.

`O=C(NC[C@H]1COCCO1)c1cccc(NC(=O)c2nsc3ccccc23)c1`: the “% Inhibition” value was -8% and the Z score was 1.37.

`CCC(c1ccccc1)S(=O)(=O)C(C)c1nnnn1C1CC1` (stereo not drawn): the “% Inhibition” value is recorded as 9% and the Z score is on record as -1.35.

On to `O=C(Nc1cccc2c1C(=O)N(c1ccccc1)C2=O)c1ccccc1F`, for which the “% Inhibition” value is -12% and the Z score stood at 1.68.

As to `COCc1nsc(NC(C)C2CCCO2)n1` (stereo not drawn), the “% Inhibition” value is -9% and the Z score was determined as 1.64.

Consider `O=C(CN1CCOc2cc(F)c(Br)cc21)N1CCC1`, for which the “% Inhibition” value is reported as -11% and the Z score was 1.66.

As to `COCC1(CNC(=O)[C@H](C)N(C)C2CCCCC2)CCC1`, the “% Inhibition” value is -9% and the Z score was found to be 1.64.

With `CC(C)(C)c1ccn(C[C@H]2CCS(=O)(=O)C2)c(=O)c1`, the “% Inhibition” value is -6% and the Z score is recorded as 1.19.

Consider `CN1CCC(Oc2cc(NC(=O)c3cscn3)ccn2)CC1`, for which the “% Inhibition” value is listed as -16% and the Z score amounted to 1.85.

As to `COc1ccc(CCC(=O)Nc2cc(OC)ncn2)cc1`, the “% Inhibition” value is listed as -5% and the Z score is 0.94.

`Cc1noc2ncnc(N3CCN(Cc4ccco4)C[C@H](O)C3)c12`: the “% Inhibition” value is -16% and the Z score is listed as 1.64.

On to `O=C(NC1CCC12CCCC2)C1CCn2ccnc2C1` (stereo not drawn), for which the “% Inhibition” value is listed as 6% and the Z score is -1.17.

As to `O=C(CCc1cccs1)NC1CCCC1`, the “% Inhibition” value came to 13% and the Z score is reported as -1.2.

Regarding `C=CCn1nc(C(=O)N(C)C)c2c1CC[C@H](N(CC)CCN(CC)CC)C2`, the “% Inhibition” value is -12% and the Z score was determined as 1.38.

As for `O=C(Nc1ccc(F)cc1)c1nscc1NCc1ccncc1`, the “% Inhibition” value was -5% and the Z score was 0.84.

As to `CN1C2CCC1CN(c1nnc(-c3ccccc3)s1)CC2` (stereo not drawn), the “% Inhibition” value is given as 5% and the Z score is on record as -0.74.

Take `OCC#Cc1ccc(-c2nccn2CCN2CCOCC2)s1`: the “% Inhibition” value was -7% and the Z score is listed as 1.33.

On to `CCCNc1ncc(CN2C[C@@H]3CC[C@H]2CN(Cc2ccccc2)C3)cn1`, for which the “% Inhibition” value is given as -10% and the Z score was found to be 1.63.

In the case of `CCc1nn(C)c(Cl)c1CN(C)C[C@H]1COCCO1`, the “% Inhibition” value is listed as -19% and the Z score was 2.05.

`Cc1cc(N2CC[C@H](OCc3csc(C)n3)C2)c2ccccc2n1`: the “% Inhibition” value is listed as -43% and the Z score stood at 5.02.

As to `CN(C)c1ccc(Br)c(S(=O)(=O)Nc2c(C#N)cnn2CCC#N)c1`, the “% Inhibition” value is recorded as -20% and the Z score is reported as 3.49.

Take `COC(=O)N1CC[C@H](Nc2cc(C#N)c3ccccc3n2)C1`: the “% Inhibition” value is recorded as -10% and the Z score turned out to be 1.16.

Source of the values: ChEMBL document CHEMBL4888484, “Replenishing the malaria drug discovery pipeline: Screening and hit evaluation of the MMV Hit Generation Library 1 (HGL1) against asexual blood stage Plasmodium falciparum ,using a nano luciferase reporter read-out” (2022).
